# Test results reported in the supplement of paper PMC4604168 (melanoma cell lines).
# The other results are listed elsewhere or left out. Many values rest on one well or one pass, so single values are uncertain.
# System: A2058
# Assay: cell count relative to DMSO control; melanoma cells; higher = more viable cells
# Conditions: library dose: standard library concentration; 72 h
# 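Note: cells treated in 1,536-well plates, then fixed and DAPI-stained, with nuclei counted from automated high-throughput microscope images.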
row,SMILES,cell count
1,"Cc1ccc(NC(=O)c2cccc(N(C)C)c2)cc1NC(=O)c1ccc(O)cc1 + Oc1nc(-c2ccc(C(F)(F)F)cc2)nc2c1CSCC2 [XAV939] (first compound 10 µM, partner dose 10 µM)",93.6%
2,"CCCCCCCCc1ccc(CCC(N)(CO)CO)cc1 [fingolimod] + C[C@@H](Oc1cc(-c2cnn(C3CCNCC3)c2)cnc1N)c1c(Cl)ccc(F)c1Cl [Crizotinib] (first compound 10 µM, partner dose 1 µM)",9.11%
3,"CCCCCCCCc1ccc(CCC(N)(CO)CO)cc1 [fingolimod] + O=C(O)c1ccc2c(c1)nc(Nc1cccc(Cl)c1)c1ccncc12 [CX4945] (first compound 10 µM, partner dose 2 µM)",9.53%
4,"NC(=O)c1ccc(N(C(N)=O)c2c(F)cccc2F)nc1-c1ccc(F)cc1F + COc1ccc(Cl)c(Nc2nc3ccccc3nc2NS(=O)(=O)c2cccc(NC(=O)C(C)(C)N)c2)c1 [XL147] (first compound 2 µM, partner dose 4 µM)",93.5%
5,"CC(C)(C)c1cnc(CSc2cnc(NC(=O)C3CCNCC3)s2)o1 + O=C(Nc1cccc(Cl)c1)Nc1ncc(CCNc2ncnc3ccsc23)s1 [SNS314] (first compound 0.05 µM, partner dose 0.004 µM)",90.3%
6,"CCCCCCCCc1ccc(CCC(N)(CO)CO)cc1 [fingolimod] + NC(=O)Nc1cc(-c2cccc(F)c2)sc1C(=O)N[C@H]1CCCNC1 [AZD7762] (first compound 10 µM, partner dose 0.1 µM)",3.43%
7,"NC(=O)c1ccc(N(C(N)=O)c2c(F)cccc2F)nc1-c1ccc(F)cc1F + Cc1ccc(NC(=O)c2cccc(N(C)C)c2)cc1NC(=O)c1ccc(O)cc1 [ZM336372] (first compound 2 µM, partner dose 10 µM)",83.1%
8,"NC(=O)c1ccc(N(C(N)=O)c2c(F)cccc2F)nc1-c1ccc(F)cc1F + C=CCn1c(=O)c2cnc(Nc3ccc(N4CCN(C)CC4)cc3)nc2n1-c1cccc(C(C)(C)O)n1 [MK1775] (first compound 2 µM, partner dose 0.1 µM)",101%
9,"NC(=O)c1ccc(N(C(N)=O)c2c(F)cccc2F)nc1-c1ccc(F)cc1F + Clc1ccc(Nc2nnc(Cc3ccncc3)c3ccccc23)cc1 [vatalanib] (first compound 2 µM, partner dose 10 µM)",84.4%
10,"CCCCCCCCc1ccc(CCC(N)(CO)CO)cc1 [fingolimod] + CO[C@@H]1[C@H](N(C)C(=O)c2ccccc2)C[C@H]2O[C@]1(C)n1c3ccccc3c3c4c(c5c6ccccc6n2c5c31)C(=O)NC4 [Midostaurin] (first compound 10 µM, partner dose 0.4 µM)",3.05%
11,"CCCCCCCCc1ccc(CCC(N)(CO)CO)cc1 [fingolimod] + COc1cc2c(Oc3ccc4[nH]c(C)cc4c3F)ncnc2cc1OCCCN1CCCC1 [cediranib] (first compound 10 µM, partner dose 2 µM)",4.1%
12,"NC(=O)c1ccc(N(C(N)=O)c2c(F)cccc2F)nc1-c1ccc(F)cc1F + COc1cc(Nc2ncc(F)c(Nc3ccc4c(n3)NC(=O)C(C)(C)O4)n2)cc(OC)c1OC [Tamatinib] (first compound 2 µM, partner dose 2 µM)",82.9%
13,"NC(=O)c1ccc(N(C(N)=O)c2c(F)cccc2F)nc1-c1ccc(F)cc1F + CN(NC(=O)CC(=O)NN(C)C(=S)c1ccccc1)C(=S)c1ccccc1 [STA4783] (first compound 2 µM, partner dose 0.03 µM)",18.2%
14,"NC(=O)c1ccc(N(C(N)=O)c2c(F)cccc2F)nc1-c1ccc(F)cc1F + C[C@]1(O)C[C@@H](c2nc(-c3ccc4ccc(-c5ccccc5)nc4c3)c3c(N)nccn32)C1 [OSI906] (first compound 2 µM, partner dose 2 µM)",77.6%
15,"NC(=O)c1ccc(N(C(N)=O)c2c(F)cccc2F)nc1-c1ccc(F)cc1F + Cn1cncc1[C@@](N)(c1ccc(Cl)cc1)c1ccc2c(c1)c(-c1cccc(Cl)c1)cc(=O)n2C [tipifarnib] (first compound 2 µM, partner dose 0.05 µM)",91.8%
16,"CCCCCCCCc1ccc(CCC(N)(CO)CO)cc1 [fingolimod] + CCCS(=O)(=O)Nc1ccc(F)c(C(=O)c2c[nH]c3ncc(Cl)cc23)c1F [PLX4720] (first compound 10 µM, partner dose 0.4 µM)",10.3%
17,"NC(=O)c1ccc(N(C(N)=O)c2c(F)cccc2F)nc1-c1ccc(F)cc1F + Oc1nc(-c2ccc(C(F)(F)F)cc2)nc2c1CSCC2 [XAV939] (first compound 2 µM, partner dose 10 µM)",90.1%
